PubChem BioAssay AID1745853 (National Center for Advancing Translational Sciences (NCATS), 2022)
The other results are listed elsewhere or left out. Further columns of the screen follow, without active or inactive calls.

Columns and labels:
Test in all cases: Primary Screen for Target Class Profiling of Small Molecule Inhibitors of Methyltransferases
[1] = biological target: Glycine N-methyltransferase (Homo sapiens) (UniProt Q14749); details: purified enzyme, MTase-Glo SAH luminescence; measured here: GNMT inhibition; at 40 µM; stronger effect = lower value
In short: (§1)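 Each enzyme was assayed with SAM and its substrate. SAH formation detected by MTase-Glo luminescence; single-point 40 uM screen[…].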

[2] = biological target: Guanidinoacetate N-methyltransferase (Homo sapiens) (UniProt Q14353); details: purified enzyme, MTase-Glo SAH luminescence; measured here: GAMT inhibition; at 40 µM; stronger effect = lower value
In short: as §1

[3] = biological target: Histamine N-methyltransferase (Homo sapiens) (UniProt P50135); details: purified enzyme, MTase-Glo SAH luminescence; measured here: HNMT inhibition; at 40 µM; stronger effect = lower value
In short: as §1

[4] = biological target: Nicotinamide N-methyltransferase (Homo sapiens) (UniProt P40261); details: purified enzyme, MTase-Glo SAH luminescence; measured here: NNMT inhibition; at 40 µM; stronger effect = lower value
In short: as §1

[5] = biological target: Phenylethanolamine N-methyltransferase (Homo sapiens) (UniProt P11086); details: purified enzyme, MTase-Glo SAH luminescence; measured here: PNMT inhibition; at 40 µM; stronger effect = lower value
In short: as §1
% is scaled to controls: 0 for no effect and ±100 for the full control effect.

| SMILES | activity change, negative = inhibition [1] | activity change, negative = inhibition [2] | activity change, negative = inhibition [3] | activity change, negative = inhibition [4] | activity change, negative = inhibition [5] |
| --- | --- | --- | --- | --- | --- |
| CC(C)Oc1ccc(-c2nc(-c3cccc4c3CCC4NCCC(=O)O)no2)cc1C#N (stereo not given) | -7.63% | 5.8% | -0.233% | -14.1% | 3.19% |
| O=C1NCCC[C@@H]1NC(=O)[C@H]1CN(C(=O)C2CCNCC2)CCN1C(=O)c1cccs1 | 4.35% | -9.5% | -1.38% | -11.1% | -8.06% |
| CCCN1C(=O)c2c(C(=O)NCc3ccccc3F)ncn2CC1(C)C(=O)NCCC(C)C (stereo not given) | 2.34% | 1.23% | -0.475% | 2.26% | 5.98% |
| N#Cc1ccc(S(=O)(=O)N2CCc3c(nc(-c4ccc(F)cc4)[nH]c3=O)C2)cc1 | -0.723% | 1.5% | 0.327% | 0.148% | 0.312% |
| Cc1cc2c(cc3n2CC(C)(C(=O)NC2CCCCCC2)N(Cc2cccc(F)c2)C3=O)o1 (stereo not given) | 6.53% | 0% | 9.48% | 1.58% | 3.19% |
| COc1ccc(NS(=O)(=O)c2sc3ccc(Cl)cc3c2C)cc1N1CCNCC1 | -13.5% | -6.57% | -13.5% | -28.1% | -4.33% |
| Cn1c(=O)c2ccc(C(=O)NC3CCCCC3)cc2n2c(=O)n(Cc3cccc(Cl)c3)nc12 | 1.81% | 0% | 6.78% | 4.85% | 3.34% |
| CCCCN1C(=O)c2cc(C(=O)NCCc3ccccc3)nn2CC1(C)C(=O)NC1CCCC1 (stereo not given) | -0.385% | 0.111% | -14% | -1.34% | 0.484% |
| C=C[C@H]1C(O[C@@H]2O[C@H](CO)[C@@H](O)[C@H](O)[C@H]2O)OC=C2C(=O)N3CCc4c([nH]c5ccccc45)C3CC21 (stereo not given in full) | 0% | 0.396% | -2.51% | -10.7% | 1.37% |
| O=C(COc1ccc(F)cc1)N1CCOc2ccc(N3CCOCC3)cc2C1 | -2.3% | 0.349% | -1.62% | -2.39% | -1.51% |
| CCCN1C(=O)c2c(C(=O)NCc3ccccc3F)ncn2CC1(C)C(=O)NC1CCCC1 (stereo not given) | 2.67% | 0.127% | 10% | 2.01% | 11.4% |
| O=C(COC(=O)C(Cc1c[nH]c2ccccc12)NC(=O)c1ccc(Br)cc1)c1ccc(Cl)cc1 (stereo not given) | 11.5% | 0% | 8.99% | 3.18% | 3.37% |
| COC(=O)c1ncn2c1C(=O)N(Cc1ccc(OC)cc1)C(C)(C(=O)NC1CCCCCC1)C2 (stereo not given) | 7.87% | 0.291% | 8.83% | 7.84% | 4.79% |
| CCCNC(=O)c1cc2n(n1)CC(C)(C(=O)NC1CCCC1)N(CCC)C2=O (stereo not given) | 6.81% | 0% | 6.04% | 5.68% | 3.86% |
| CC(CO)C1CCC2(C)CC3C(CO)CC(O)C3C(C)(O)C/C=C/12 (stereo not given) | 5.5% | 7.88% | 10.2% | -5.58% | 4.25% |
| COc1cccc(CCC(=O)NCc2nnc3c(-c4nc(C)no4)cccn23)c1 | -1.6% | -0.997% | -4.59% | -5.64% | 5.88% |
